Data: the supplement of paper PMC9446081
About 220 (0.56%) of roughly 39,000 compounds showed activity. The list shows a part of the results.

system: Escherichia coli K-12 BW25113; assay: relative growth (OD600 normalised to plate interquartile mean) (fraction); higher = less growth inhibition, active = 0.2 or less; settings: 50 µM; LB; incubation time: overnight (16-24 h)
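Note: static incubation at 37 °C against the wild-type strain, values averaged over two biological replicates.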

Row | Compound | relative growth
1 | Cc1ccc(S(=O)(=O)N[C@@H]2CC[C@H](CC(=O)N3CCC(Cc4ccccc4)CC3)O[C@H]2CO)cc1 | inactive: 0.986
2 | C[C@@H]1CN([C@H](C)CO)C(=O)Cc2cc(NS(=O)(=O)c3ccccc3)ccc2O[C@@H]1CN(C)Cc1ccc(Oc2ccccc2)cc1 | inactive: 0.996
3 | CCN1C[C@@H]2CN(C(=O)c3ccnn3C)C[C@H]2C1=O | inactive: 0.978
4 | C=CCC[C@@H](Cc1ccc(F)cc1)C(=O)OC[C@@H](NC(=O)[C@@H](CC=C)CC(=O)N[C@H](CO)Cc1ccccc1)C(C)(C)C | inactive: 1.03
5 | COc1cc(-c2cc(=O)c3c(s2)N(c2ccc(OC)c(OC)c2)[C@@H](c2ccc(O)c(OC)c2)CC3=O)ccc1O | inactive: 1.04
6 | C[C@@H]1CN([C@H](C)CO)C(=O)Cc2cc(NS(=O)(=O)c3cn(C)cn3)ccc2O[C@@H]1CN(C)Cc1ccncc1 | inactive: 1
7 | COc1ccc(CN(C)C[C@@H]2Oc3c(NS(C)(=O)=O)cccc3C(=O)N([C@H](C)CO)C[C@@H]2C)cc1 | inactive: 1.02
8 | CC(C)NC(=O)N[C@@H]1C=C[C@H](CC(=O)O)O[C@@H]1CO | inactive: 0.978
9 | C[C@H](CO)N1C[C@H](C)[C@@H](CN(C)C(=O)CCN2CCCCC2)Oc2ncc(C#CCN(C)C)cc2C1=O | inactive: 0.978
10 | C[C@@H]1CCCCO[C@H](CN(C)C(=O)Nc2ccc(F)cc2)[C@H](C)CN([C@H](C)CO)C(=O)c2cc(NS(=O)(=O)c3ccc(Cl)cc3)ccc2O1 | inactive: 1.01
11 | CC(C)NC(=O)Nc1ccc2c(c1)C(=O)N(C)[C@@H]1CC[C@H](CC(=O)NCc3ccc(F)cc3)O[C@@H]1CO2 | inactive: 1.02
12 | COc1ccc(S(=O)(=O)N(C)C[C@@H]2Oc3ccc(NS(=O)(=O)c4ccc(C)cc4)cc3C(=O)N([C@@H](C)CO)C[C@@H]2C)cc1 | inactive: 1.02
13 | COc1ccc(CN(C)C[C@@H]2OCCCC[C@H](C)Oc3ccc(NC(=O)Nc4ccc5c(c4)OCO5)cc3C(=O)N([C@H](C)CO)C[C@H]2C)cc1 | inactive: 1.02
14 | Cc1cc(C(C)(C)C)c(O)c(C(C)(C)C)c1 | inactive: 1.02
15 | C[C@@H]1CN([C@@H](C)CO)C(=O)c2cccc(NC(=O)C3CC3)c2O[C@@H]1CN(C)C(=O)Nc1ccc2c(c1)OCO2 | inactive: 0.989
16 | C[C@@H](NC(=O)[C@@H]1CCCC[C@H]1C(=O)O)c1ccccc1.C[C@@H](NC(=O)[C@H]1CCCC[C@H]1C(=O)O)c1ccccc1 | inactive: 1.01
17 | CCS(=O)(=O)N1C[C@]2(CN(C2)C(=O)Nc2c(noc2C)C)c2c(n(c3cc(ccc23)OC)C)[C@H]1CO | inactive: 1.03
18 | COc1ccc([C@@H]([C@H](Cc2ccccc2)OC(C)=O)N2Cc3c(noc3[C@@H](O)c3ccccc3)[C@@H]2Cc2ccccc2)cc1 | inactive: 1.01
19 | COCCNC(=O)C[C@H]1C[C@@H]2c3cc(NC(=O)Nc4ccc(C(F)(F)F)cc4)ccc3O[C@@H]2[C@@H](CO)O1 | inactive: 0.924
20 | Cc1ccccc1-c1ccc2c(c1)O[C@H](CN(C)C(=O)Nc1ccc(C(F)(F)F)cc1)[C@H](C)CN([C@H](C)CO)S2(=O)=O | inactive: 0.961
21 | C[C@@H]1CN([C@H](C)CO)C(=O)Cc2cc(NS(=O)(=O)c3cn(C)cn3)ccc2O[C@H]1CN(C)Cc1ccc(C(=O)Nc2ccccc2N)cc1 | inactive: 0.999

Row | Compound | relative growth
22 | COc1ccc(CN(C)C[C@@H]2OCCCC[C@@H](C)Oc3ccc(NC(=O)Nc4ccc(F)cc4)cc3C(=O)N([C@H](C)CO)C[C@@H]2C)cc1 | inactive: 0.998
23 | COc1ccc2c(c1)OCC(Cc1ccc(OC)c(O)c1)C2=O (stereo unspecified) | inactive: 0.839
24 | COc1ccc(NC(=O)Nc2ccc3c(c2)C(=O)N([C@H](C)CO)C[C@H](C)[C@H](CN(C)C(=O)c2ccccc2)OCCCC[C@@H](C)O3)cc1 | inactive: 0.99
25 | C[C@@H]1CN([C@@H](C)CO)C(=O)c2cc(NS(=O)(=O)c3cccs3)ccc2O[C@@H](C)CCCCO[C@@H]1CN(C)Cc1ccc(C(=O)O)cc1 | inactive: 1.01
26 | CO[C@@H]1CN(C)C(=O)c2ccc(NC(=O)C3CCOCC3)cc2OC[C@H](C)N(Cc2cccnc2)C[C@@H]1C | inactive: 1.03
27 | Cc1noc(C)c1S(=O)(=O)N(C)C[C@@H]1Oc2ccc(NS(=O)(=O)c3cccs3)cc2C(=O)N([C@@H](C)CO)C[C@@H]1C | inactive: 1.01
28 | Cc1noc(C)c1S(=O)(=O)N(C)C[C@H]1OCCCC[C@@H](C)Oc2ccc(NC(=O)Nc3ccccc3)cc2C(=O)N([C@@H](C)CO)C[C@@H]1C | inactive: 1.01
29 | C[C@H](O)[C@H](O)[C@@H](O)[C@@H](O)/C=N/NC(=O)CCCCCCC(=O)NO | inactive: 1.02
30 | COc1ccc(S(=O)(=O)N(C)C[C@@H]2Oc3ccc(N(C)C)cc3C(=O)N([C@H](C)CO)C[C@@H]2C)cc1 | inactive: 0.986
31 | CN(C)Cc1cn(CC[C@H]2CC[C@H](NC(=O)Cc3cccnc3)[C@@H](CO)O2)nn1 | inactive: 0.993
32 | O=C(C[C@@H]1CC[C@@H](NC(=O)CN2CCOCC2)[C@@H](CO)O1)NC1CCC1 | inactive: 1.02
33 | C[C@@H]1CN([C@H](C)CO)C(=O)c2cc(NC(=O)NC3CCCCC3)ccc2O[C@@H](C)CCCCO[C@H]1CN(C)S(=O)(=O)c1ccccc1 | inactive: 1.02
34 | C[C@H]1CN([C@@H](C)CO)C(=O)Cc2cc(NC(=O)c3ccncc3)ccc2O[C@H]1CN(C)S(=O)(=O)c1cn(C)cn1 | inactive: 0.971
35 | C[C@@H]1CCCCO[C@@H](CN(C)C(=O)Nc2cccc3ccccc23)[C@H](C)CN([C@H](C)CO)C(=O)c2cc(NC(=O)Nc3ccc4c(c3)OCO4)ccc2O1 | inactive: 1
36 | O=C(C[C@H]1C=C[C@H](NC(=O)c2ccc(F)cc2)[C@@H](CO)O1)NCc1ccncn1 | inactive: 0.976
37 | Cc1noc(C)c1NC(=O)N(C)C[C@@H]1Oc2c(NC(=O)Nc3ccc(C(F)(F)F)cc3)cccc2C(=O)N([C@@H](C)CO)C[C@H]1C | inactive: 1
38 | OC1(Cn2ccnc2)CCNCC1 | inactive: 0.99
39 | C[C@H](CO)N1C[C@H](C)[C@@H](CN(C)C(=O)Nc2ccccc2)OCCCC[C@H](C)Oc2ccc(NC(=O)Nc3ccc(F)cc3)cc2C1=O | inactive: 1.05
40 | COc1ccc(S(=O)(=O)N(C)C[C@H]2Oc3ccc(NS(=O)(=O)c4ccccc4)cc3C(=O)N([C@@H](C)CO)C[C@H]2C)cc1 | inactive: 1.02
41 | COCC#Cc1ccc2c(c1)O[C@H](CN(C)C(=O)COC)[C@@H](C)CN([C@@H](C)CO)S2(=O)=O | inactive: 1
42 | NCCOc1ccccc1Cc1ccccc1 | inactive: 0.945

Row | Compound | relative growth
43 | CCNc1nc(NCC)nc(C(=O)OCCO)n1 | inactive: 1.01
44 | C[C@H](CO)N1C[C@H](C)[C@H](CN(C)Cc2ccc(C(F)(F)F)cc2)Oc2ccc(NC(=O)Cc3cn(C)c4ccccc34)cc2CC1=O | inactive: 1.04
45 | CC(C)NC(=O)N(C)C[C@@H]1Oc2ccc(NC(=O)NC3CCCCC3)cc2C(=O)N([C@H](C)CO)C[C@H]1C | inactive: 0.987
46 | Cc1noc(C)c1NC(=O)N[C@@H]1CC[C@@H](CC(=O)N2CCN(C)CC2)O[C@H]1CO | inactive: 1
47 | C[C@@H]1CN([C@H](C)CO)C(=O)c2cc(NC(=O)c3ccncc3)ccc2O[C@H]1CN(C)C(=O)Nc1ccc2c(c1)OCO2 | inactive: 0.982
48 | COCCOC(=O)N1C(=O)[C@@]2(c3ccccc31)[C@H](c1ccc(O)cc1)N1[C@H](c3ccccc3)[C@H](c3ccccc3)OC(=O)[C@H]1[C@@H]2C(=O)N1CCc2cc(OC)c(OC)cc2C1 | inactive: 0.982
49 | C=CCn1c(O)c(C#N)c(C)cc1=O | inactive: 1.03
50 | C[C@@H]1CCCCO[C@@H](CN(C)S(=O)(=O)c2cccs2)[C@H](C)CN([C@@H](C)CO)C(=O)c2cc(NC(=O)NC3CCCCC3)ccc2O1 | inactive: 1.01
51 | CN1CCN([C@@H](CNC(=O)C(=O)NCc2ccco2)c2ccc3c(c2)OCO3)CC1 | inactive: 1.01
52 | Cc1ccc(-c2cnc3c(c2)C(=O)N([C@H](C)CO)C[C@@H](C)[C@@H](CN(C)C(=O)Cc2ccncc2)O3)cc1 | inactive: 1
53 | C[C@H](CO)N1C[C@H](C)[C@@H](CN(C)C(=O)Cc2ccccn2)Oc2cc(-c3ccc(C(=O)N(C)C)cc3)ccc2S1(=O)=O | inactive: 1.02
54 | O=C(C[C@@H]1C[C@H]2c3cc(NC(=O)Nc4ccccc4F)ccc3O[C@H]2[C@H](CO)O1)NCc1ccc(Oc2ccccc2)cc1 | inactive: 0.983
55 | COc1ccc(CN(C)C[C@H]2OCCCC[C@@H](C)Oc3ccc(NC(=O)Nc4cccc5ccccc45)cc3C(=O)N([C@@H](C)CO)C[C@H]2C)cc1 | inactive: 0.797
56 | C[C@@H]1CN([C@H](C)CO)C(=O)Cc2cc(NS(=O)(=O)c3ccccc3)ccc2O[C@@H]1CN(C)S(=O)(=O)c1cn(C)cn1 | inactive: 1.01
57 | Cc1noc(C)c1NC(=O)N(C)C[C@H]1Oc2c(NC(=O)c3ccncc3)cccc2C(=O)N([C@@H](C)CO)C[C@H]1C | inactive: 0.964
58 | CCS(=O)(=O)Nc1ccc2c(c1)C(=O)N(C)[C@@H]1CC[C@@H](CC(=O)N[C@H]3CCN(Cc4ccccc4)C3)O[C@H]1CO2 | inactive: 0.968
59 | CC(=O)OC(CC(=O)O)[N+](C)(C)C.[Cl-] (stereo unspecified) | inactive: 1.06
60 | Cc1noc(C)c1NC(=O)Nc1ccc2c(c1)CC(=O)N([C@H](C)CO)C[C@H](C)[C@@H](CN(C)S(=O)(=O)c1cccs1)O2 | inactive: 1.02
61 | O=C(O)c1cc(=O)cc(C(=O)O)o1 | inactive: 0.996
